# Test results taken from PubChem BioAssay AID1030 (National Center for Advancing Translational Sciences (NCATS), 2008).
# About 16,000 (7.3%) of roughly 220,000 compounds were called active. This list was built around the results that the source calls inconclusive (neither active nor inactive); the mix of calls is not that of the screen. Calls come from the whole dose curve; as a rule, active = well fitted inhibition curve with a large enough effect (not every such curve was filed as active); inconclusive = small, poorly fitted or top-dose-only effect, or another doubt; inactive = no such curve, though single readings can be large or run the other way. Potencies of inconclusive entries are left out as doubtful fits.
# Molecular target: Aldehyde dehydrogenase 1A1 (Homo sapiens) (UniProt P00352)
# Sequence of UniProt P00352 (P00352 whole entry, looked up): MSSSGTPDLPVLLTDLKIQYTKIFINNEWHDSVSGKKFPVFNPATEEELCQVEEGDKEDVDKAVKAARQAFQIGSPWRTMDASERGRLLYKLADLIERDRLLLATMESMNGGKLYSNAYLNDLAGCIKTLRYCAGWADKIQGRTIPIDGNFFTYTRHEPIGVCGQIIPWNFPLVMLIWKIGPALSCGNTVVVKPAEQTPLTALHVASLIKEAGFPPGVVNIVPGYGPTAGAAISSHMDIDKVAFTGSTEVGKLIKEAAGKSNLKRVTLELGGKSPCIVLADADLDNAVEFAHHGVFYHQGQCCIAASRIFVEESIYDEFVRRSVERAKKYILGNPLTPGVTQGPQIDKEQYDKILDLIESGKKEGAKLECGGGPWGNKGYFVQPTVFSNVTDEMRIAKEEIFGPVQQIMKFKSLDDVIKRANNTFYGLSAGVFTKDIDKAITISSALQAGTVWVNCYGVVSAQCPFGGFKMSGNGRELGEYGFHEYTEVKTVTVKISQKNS
# Experiment: qHTS Assay for Inhibitors of Aldehyde Dehydrogenase 1 (ALDH1A1);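 for activity, negative = inhibition: plate controls were no enzyme wells and a reference inhibitor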
# Conditions: Purified ALDH1A1, NADH fluorescence, propionaldehyde substrate; series mostly up to 75.3 µM
# Potency is the fitted concentration of half-maximal effect; tags give direction and shape of the fitted curve.
SMILES,Potency,"activity, negative = inhibition"
O=C(NNC(=O)c1cccc2ccccc12)c1ccc(-c2ccccc2)cc1,"inconclusive [inhibitor, single point]",–
O=c1[nH]ncc(N/N=C\c2ccc(O)cc2O)c1Cl,inactive,–
CCCCCCn1c(C(C)NC(=O)c2ccco2)nc2ccccc21 (configuration not stated),active: 5.01 µM,–
CCOC(=O)c1sc(=NC(=O)c2ccc(S(=O)(=O)N(C)c3ccccc3)cc2)n(C)c1C,inactive,–
Cc1cc(Br)cc(C)c1NC(=S)NC(=O)CC(C)C,"inconclusive [inhibitor, single point]",–
Clc1ccc(Sc2cc(Cl)c(-c3ccccc3)nn2)cc1,"inconclusive [inhibitor, single point]",–
COc1ccc2c(c1)Cc1sc(NC(=O)c3cccs3)nc1-2,active: 2.51 µM,–
COC(=O)CNc1nc(C2CC2)nc2c1nnn2Cc1ccccc1Cl,active: 1.58 µM,–
Cc1cccc(-c2nc(CSCC(=O)N3CCN(Cc4ccc5c(c4)OCO5)CC3)c(C)o2)c1,"inconclusive [inhibitor, single point]",–
Cc1cccc(-n2c(-c3ccncc3)n[nH]c2=S)c1,"inconclusive [inhibitor, single point]",–
Cc1ccc(-n2c(C)cc3c2CC(C)(C)CC3=O)cc1C,"inconclusive [inhibitor, single point]",–
CSc1cccc(NC(=S)N2CCC(N(C)C3CCCCC3C)CC2)c1 (configuration not stated),inactive,–
CCOC(=O)CNC(=O)C1c2ccccc2C(=O)N(c2ccc(OC)cc2)C1c1ccc(OC)cc1 (configuration not stated),active: 28.2 µM,–
COc1ccccc1CNC(=O)CN(C)CC(=O)Nc1cccc(F)c1,"inconclusive [inhibitor, single point]",–
O=C(Nc1cccnc1)c1ccc(-c2cc(Cl)ccc2Cl)o1,inactive,–
CCOC(=O)c1ccc(NC(=O)CN2C(=O)CSCC2=O)cc1,"inconclusive [inhibitor, single point]",–
O=S(=O)(c1ccc(NC(=S)NCc2ccncc2)cc1)N1CCCCC1,"inconclusive [inhibitor, partial curve]",–
CCOC(=O)C1CSC(CC(=O)Nc2ccc(Cl)cc2)C(=O)N1 (configuration not stated),"inconclusive [inhibitor, single point]",–
COc1ccc(CCNC(=O)C(=O)N/N=C/c2cccs2)cc1OC,inactive,–
O=C(Nc1ccccc1Cc1ccccc1)c1oc2ccccc2c1COc1ccccc1,"inconclusive [inhibitor, single point]",–
CCc1nc(SCc2cc(Cl)ccc2OC)n[nH]1,inactive,–
CCOC(=O)c1cc2c(ccn2C)n1Cc1ccccc1C,inactive,–
Cc1ccc2[nH]c(=O)c(CN(Cc3ccc4c(c3)OCO4)Cc3nnnn3Cc3ccco3)cc2c1,active: 25.1 µM,–
O=C1OC(c2ccc(Cl)cc2)/C(=C(/O)c2ccccc2)C1=O (configuration not stated),active: 7.94 µM,–

SMILES,Potency,"activity, negative = inhibition"
Cc1cnc(C(=O)N2CCN(S(=O)(=O)c3ccc4ccccc4c3)CC2)cn1,active: 12.6 µM,–
CSc1nnc2c3cc(F)ccc3n(Cc3ccccc3)c2n1,"inconclusive [inhibitor, single point]",–
CC(C)=C1C2CCC1C1C(=O)N(NC(=O)c3ccco3)C(=O)C21 (configuration not stated),inactive,–
COc1cc(C2N(c3ccc(Cl)c(Cl)c3)C(=O)C3CCCN32)cc(OC)c1OC (configuration not stated),"inconclusive [inhibitor, single point]",–
CC(=O)Nc1ccc(S(=O)(=O)C(C#N)c2nc3ccccc3nc2NCCN2CCOCC2)cc1 (configuration not stated),"inconclusive [inhibitor, partial curve]",–
O=C(c1ccc2ccccc2c1)N1CCN(c2ccc(C(F)(F)F)cn2)CC1,active: 15.8 µM,–
CCOC(=O)c1ccc(N2C(=O)CC(Nc3ccc(CCO)cc3)C2=O)cc1 (configuration not stated),active: 15.8 µM,–
Cc1ccc(CCNC(=O)CS(=O)Cc2nc(-c3cccc(C)c3)oc2C)cc1 (configuration not stated),"inconclusive [inhibitor, single point]",–
CC(=O)c1c(OC(=O)c2ccccc2Br)ccc2c(C)cc(=O)oc12,inactive,–
COCCn1c(SCC(=O)c2ccc3c(c2)OCCO3)nnc1-c1ccoc1C,active: 20 µM,–
CCOc1cc(C(=O)Nc2ccc(N3CCOCC3)cc2)cc(Br)c1OC,"inconclusive [inhibitor, single point]",–
Cc1cc(C)c2nc(-c3ccccn3)cc(C(=O)NCc3ccc(S(N)(=O)=O)cc3)c2c1,"inconclusive [inhibitor, single point]",–
Cc1ccc(OCc2ccc(C(=O)Nc3nccs3)o2)cc1C,"inconclusive [inhibitor, single point]",–
O=C(Cn1cc(S(=O)(=O)Cc2ccccc2)c2ccccc21)Nc1ccccc1,"inconclusive [inhibitor, single point]",–
COc1ccc(Nc2ncc(C(=O)O)c3ccccc23)cc1,inactive,–
CC1CCN(C(=O)C2CCCCN2S(=O)(=O)c2cccc([N+](=O)[O-])c2)CC1 (configuration not stated),"inconclusive [inhibitor, single point]",–
CCc1ccc(-c2csc3[n+]2CCN3C(C)=O)cc1,"inconclusive [inhibitor, partial curve]",–
CCOc1cc(CNc2ccc(O)cc2)ccc1OCc1ccc(Cl)cc1Cl,"inconclusive [inhibitor, single point]",–
CN(Cc1ccco1)c1nc(-c2ccc3c(c2)OCO3)nc2ccccc12,"inconclusive [inhibitor, single point]",–
CCOC(=O)C1Cn2c(nc3c(c2=O)C(C)(C)Cc2ccccc2-3)S1 (configuration not stated),"inconclusive [inhibitor, partial curve]",–
CC(Nc1ccc(Cl)cc1)c1cc(Cl)ccc1O (configuration not stated),inactive,–
Cc1c(C(=O)NCCc2ccccc2)oc2ccc(S(=O)(=O)N3CCC4(CC3)OCCO4)cc12,"inconclusive [inhibitor, single point]",–
CC1CCCCC1NC(=O)COC(=O)/C=C/c1ccc2c(c1)OCO2 (configuration not stated),"inconclusive [inhibitor, single point]",–
C=C(C)Cn1c(NCCOC)nc2c1c(=O)[nH]c(=O)n2C,inactive,–

SMILES,Potency,"activity, negative = inhibition"
O=S(=O)(c1ccc2ccccc2c1)N1CCN(C2Cc3ccccc3C2)CC1,active: 28.2 µM,–
Cc1cnc(CNc2cc(-c3ccc(C(=O)N(C)C)cc3)ncn2)cn1,"inconclusive [inhibitor, partial curve]",–
CCCn1c(=O)[nH]c(=O)c2c1nc(-c1ccc(OC(F)(F)C(F)C(F)(F)F)cc1)n2CCOC (configuration not stated),"inconclusive [inhibitor, single point]",–
Cc1cc(C)c(NC(=O)Cn2c(=O)n(-c3ccc(CC(=O)NCC4CCCO4)cc3)c(=O)c3ccccc32)c(C)c1 (configuration not stated),inactive,–
Cc1ccc(N2CC(C(=O)NCc3cccs3)CC2=O)cc1C (configuration not stated),"inconclusive [inhibitor, single point]",–
O=C(CSCc1cccc(Br)c1)N=Nc1c(O)[nH]c2ccccc12,active: 7.94 µM,–
O=C1NC(=Nc2ccc(Cl)cc2)/C(=C/c2ccco2)S1,"inconclusive [inhibitor, single point]",–
COc1ccc(NC(=O)c2sccc2C)c([N+](=O)[O-])c1,"inconclusive [inhibitor, single point]",–
CCOC(=O)Cc1nc2ccccc2n(CC#N)c1=O,"inconclusive [inhibitor, single point]",–
CCCCN(CC)CCCNC(=O)C1CCN(c2ncnc3c2sc2cccc(F)c23)CC1,"inconclusive [inhibitor, single point]",–
O=C(c1ccc(C(F)(F)F)cc1)N1CCCCC1,inactive,–
O[C@@H](C1=C/C(=C\c2ccncc2)c2ccccc21)c1ccncc1,–,inactive: -0.84% [at 13.5 µM]
CCCc1cc(C(=O)Nc2ccccc2C(=O)OC)no1,inactive,–
Cc1ccc2oc(-c3ccc(NC(=O)c4ccc5c(c4)OCO5)cc3)nc2c1,"inconclusive [inhibitor, partial curve]",–
O=C(CSc1nnc2sc3ccccc3n12)c1ccco1,active: 15.8 µM,–
O=C1/C(=C/c2ccco2)CCC1C1CCCC1 (configuration not stated),"inconclusive [inhibitor, single point]",–
CCCCN(C)C(=O)c1ccc(S(=O)(=O)N2CCOCC2)cc1,"inconclusive [inhibitor, single point]",–
CC1=NN(/C(=N\c2nnc(C)s2)Nc2ccc(C(C)(C)C)cc2)[C@H](c2ccc(C)cc2)S1,"inconclusive [inhibitor, partial curve]",–
COc1ccc(C)cc1NC(=O)C(OC(=O)CNC(=O)c1ccc(Br)cc1)c1ccccc1 (configuration not stated),"inconclusive [inhibitor, partial curve]",–
CC(C)(C)C(=O)/C(=C\c1ccc([N+](=O)[O-])cc1)n1cncn1,inactive,–
O=C(NNS(=O)(=O)c1ccccc1)C1CCN(S(=O)(=O)c2ccccc2)CC1,"inconclusive [inhibitor, single point]",–
CCCn1c(SCC(=O)Nc2nnc(CC)s2)nnc1-c1ccncc1,"inconclusive [inhibitor, single point]",–
COc1cccc(C(C)N(C)Cc2nc(-c3ccoc3)oc2C)c1 (configuration not stated),inactive,–
Cc1ccc(S(=O)(=O)c2nnn3c2nc(Nc2cccc(C)c2)c2ccccc23)cc1,"inconclusive [inhibitor, single point]",–
